Assay results taken from ChEMBL document CHEMBL4888484, “Replenishing the malaria drug discovery pipeline: Screening and hit evaluation of the MMV Hit Generation Library 1 (HGL1) against asexual blood stage Plasmodium falciparum ,using a nano luciferase reporter read-out” (2022).
About 540 (0.36%) of roughly 150,000 compounds showed an effect of 50% or more. The list shows a part of the results.

system: Plasmodium falciparum; assay: Primary screen in NF54 nanoGlo assay, in single point, at 2uM, 72h; a lower Z score goes with more inhibition; assay type: functional, Erythrocyte; conditions: timepoint 72 hour

Compound	% Inhibition [%]	Z score
Cc1c(S(=O)(=O)N2CCCCC2)cc(C(=O)n2ccnc2)n1C	-3	0.36
NC(=O)c1ccc(COC(=O)C2CC3CCC2C3)cc1 (configuration not stated)	-12	2.16
Cc1cc(N2CCN(c3ncc(C#N)cc3Cl)CC2)nc(C(C)C)n1	-20	2.75
O=C1CC(C[C@H]2CCCO2)=NN1CCc1ccccn1	-33	3.88
Cn1cc(C(=O)N[C@H]2C[C@H](CO)C2)c(-c2ccncc2)n1	-6	0.98
COCC1(C(=O)N[C@@H](C)c2ccco2)CCC1	4	-0.57
COc1cccc(CNC(=O)CN2CCC(C(=O)c3ccc(O)cc3)CC2)c1	-12	1.3
O=C(Cn1ncc2c([nH]c3ccccc32)c1=O)NC1CCN(Cc2ccccc2)CC1	2	-0.28
CC(=O)Nc1ccc(S(=O)(=O)NCCn2c(-c3ccncc3)nc3ccccc32)cc1	-3	0.51
N#Cc1nccnc1O[C@H]1CCN(C(=O)Cn2cnc3ccccc32)C1	-4	0.45
Cn1nc2c(c1NS(C)(=O)=O)CCC2	-6	1.23
CC(C)c1csc(CNC(=O)Nc2nc(C3CCC3)cs2)n1	7	-1.26
Cc1ncn(C[C@H](O)C(F)(F)F)c(=O)c1C	-6	0.87
CC(=O)/C(=N/Nc1cccc(C)c1)N1CCOCC1	-46	5.37
Cc1cnc(N2CCC(C(=O)NCCCN3CCCC3)CC2)nc1C	0	0.04
Cc1cccn2cc(COc3ccc(C(=O)NC[C@@H](CO)C4CCC4)cc3)nc12	-12	2.32
Nc1c(Oc2cccc(F)c2)ncnc1-c1ccc(F)cc1F	-10	1.2
CCN1CCN(C(=O)c2ccc(Br)cn2)C(C)(C)C1=O	29	-3.31
Cc1cc(=O)cc(O)n1Cc1nc(N)n[nH]1	-1	0.15
Cc1noc(-c2nn(C)c3c2CN(C(=O)CC(C)(C)C)CC3)n1	6	-0.66
CCN1CCN(C[C@]2(O)CCCN(Cc3cc(OC)ccc3F)C2=O)CC1	-7	1.07
Cc1nc(Cc2ccc(N(C)C)cc2)n(CCO)n1	3	-0.53

Compound	% Inhibition [%]	Z score
O=C(NCC(=O)N1CCC[C@@H]1Cc1ccc(F)cc1)c1ccccc1	-6	1.11
Cn1ccc(NC(=O)Cn2cc(C(F)(F)F)ccc2=O)n1	8	-1.57
Cn1cc(CN2CCCC[C@H]2c2nccn2C)c(-c2ccc3c(c2)OCCO3)n1	-6	0.9
O=C(NC1Cc2cccc(O)c2C1)C1CC2CCC1O2 (configuration not stated)	-8	1.6
Cc1cc(NC(=O)CN2CCC[C@H](C(=O)c3cccc(OC(C)C)c3)C2)no1	-2	0.41
CCOC(=O)[C@H](C)N(C)S(=O)(=O)c1cnn(C)c1	-6	1.21
Cc1ncnc(NCCCN(C)C2CCCC2)c1C	-10	1.04
CCS(=O)(=O)c1cc(F)ccc1NC(=O)N[C@H](CO)CCOC	-8	1.46
CCN1CCC[C@@H]1CNC(=O)c1n[nH]c2c1CCCC2	-9	1.32
CCC[C@@]1(C2CCN(C(=O)c3csc4c3CCCC4)CC2)NC(=O)N(CCc2ccccn2)C1=O	-10	1.29
C[C@H](NC(=O)c1noc2c1COCC2)c1csc(C(F)(F)F)c1	-9	1.2
CC(C)N1CCC(=O)N(Cc2ccc(CN3C(=O)CCN(C(C)C)C3=O)cc2)C1=O	-10	1.52
O=c1ccc(C(F)(F)F)nn1Cc1ccc(-n2cccn2)cc1	-9	1.13
CC(C)c1nc(C#N)c(N2CCN(c3ccccc3)CC2)o1	4	-0.52
CCOc1c(CNC(C)(C)CO)cc(Br)cc1OC	-10	1.15
CN1C(=O)COC(C(N)=O)C1c1ccccc1 (configuration not stated)	-15	1.98
CN1CCN(CC(=O)N2CCC(OCc3ccccn3)CC2)C1=O	7	-1.31
CCOC(CN1CC(C)(C)C1(C)C)OCC	3	-0.3
CN(CCCNC(=O)c1cnc(-c2ccccn2)nc1O)c1ccccc1	-8	1.54
CCS(=O)(=O)N[C@@H](COC)c1ccccn1	-11	1.93
CN(C)c1cccc(-c2ccc3c(cnn3C)c2)c1	-6	0.97
COc1cc(=O)[nH]cc1C(=O)N1CCCC[C@H]1c1ccccc1	3	-0.43

Compound	% Inhibition [%]	Z score
Cc1cc(S(=O)(=O)N(C)CCNc2ccccn2)c(C)o1	-1	0.09
O=C1CC[C@H](NC(=O)C2(Cc3cccc(F)c3)CCCCC2)C2(CCC2)N1	1	-0.22
COCCOCC(=O)NCc1nc(C)c(C)s1	-5	1.01
COc1cccc(C(CNCc2c(C)nn(C3CCS(=O)(=O)C3)c2C)N2CCCC2)c1 (configuration not stated)	-6	0.76
COc1ccccc1S(=O)(=O)N(c1ccc2[nH]ccc2c1)[C@@H](C)CC(C)C	-1	0.23
CN(C)CC(=O)N1CC[C@H]2COC(=O)N2c2cc(F)ccc2C1	7	-0.92
COc1ccc(CCNCCC(=O)N2CCC[C@H](C)C2)cc1	-19	2.4
Cc1cc(NC(=O)C(C)NC2CCCN(Cc3noc(C)n3)C2)on1 (configuration not stated)	-13	1.5
Cc1ccc(CNC(=O)c2nnc(-c3oc4ccc(C)cc4c3C)o2)cc1	13	-1.56
CCc1ccc(CNC(=O)[C@H](CC)n2nc(C)c3nn(-c4ccccc4)c(C)c3c2=O)cc1	-3	0.36
Nc1nc(-c2ccncc2)cc(N2CCCC2)n1	-21	1.96
O=C(NCCN1CCN(c2ncnc3[nH]ncc23)CC1)C1CCC1	4	-0.58
COCc1nc([C@@H]2CCCCCN2C(=O)Nc2c(F)cccc2F)no1	-10	1.03
CCCC(=O)N1CCC(N2C[C@@H]3NC(=O)CN(CCOC)C(=O)CCc4ccc(OC)c(c4)Oc4cccc(c4)CO[C@H]3C2)CC1	-9	1.78
COc1ccc(-c2cn3c4ccccc4nc3n2CCN2CCN(C)CC2)cc1	27	-3.09
CCCCCNC(=O)c1nc(-c2ccc(N3CCCCC3)nc2)no1	0	0.04
COc1ccc(Cl)cc1C(=O)N1N=C(C2CC2)C[C@]1(O)C(F)(F)F	3	-0.52
Cn1nc(C(=O)Nc2nc3c(s2)CN(S(=O)(=O)C2CC2)CC3)ccc1=O	-9	1.27
Cc1cc(NC(=O)NC(C)(C)C(=O)NCC(C)(C)C)c(C)cn1	3	-0.5
O=C1CCN(C(=O)Nc2ccccc2)CCN1	-17	3.4
COCC(=O)N[C@@H](C)C(=O)N(C)CC(=O)Nc1c(C)cc(C)cc1C	29	-3.23
CC1COC(c2ccccc2)C(C)N1C(=O)c1cccn1C (configuration not stated)	-8	0.99

Compound	% Inhibition [%]	Z score
COc1ccccc1-c1nnc(Cn2cnc3c2CCCC3)o1	-5	0.87
Cc1nc(Cn2cc(-c3ccc(C)c(C)c3)nn2)n[nH]1	-14	2.08
CO[C@@H](C)c1cccc(NC(=O)N(C)Cc2noc(C)n2)c1	-11	1.62
COc1ccc2[nH]c(CN3CCC(c4ccnc(N)n4)CC3)c(C)c2c1	1	-0.13
O=C(c1cc(-c2ccc3c(c2)CCCC3)on1)N(Cc1ccccc1Cl)[C@H]1CCS(=O)(=O)C1	-9	1.86
CC[C@@H]1Oc2ccc(OCc3cccc(F)c3)cc2NC1=O	-7	0.98
O=C(NC1CCN(C(=O)Cn2cc(C(F)(F)F)ccc2=O)CC1)c1ccncc1	-3	0.45
NC(=O)c1ccccc1NC(=O)c1cc(N2CCCC2)ncn1	0	0
COCCn1ccc(NC(=O)CN(C)C(C)C)n1	-10	0.99
COC[C@@H](c1ccccn1)N(C)C(=O)CCc1cn2ccccc2n1	-11	1.42
CCCO[C@@H](C)C(=O)N1CCC2(CCC(=O)N(Cc3cccnc3)C2)CC1	0	0.06
CCC=C(C)C(=O)N1CCC[C@H](CCC(=O)O)C1	-17	2.35
COCc1cn(C2CCN(c3nccc4ccccc34)CC2)nn1	-6	0.77
CNC(=O)NC(=O)C(C)NC1CCCC1CCC(C)C (configuration not stated)	-3	0.51
CC(=O)N(CCN1CCOCC1)[C@H]1CCN(C(=O)c2ccc3ncccc3c2)C1	-13	1.71
Cc1nc(-c2ccccc2NC(=O)c2ccccc2C(F)(F)F)cs1	10	-1.25
O=C(NCc1ccccc1Cl)c1csc(-c2ccnc(N3CCCC3)c2)n1	-12	1.53
COc1ccc(F)c(C(=O)N2C[C@H]3CC[C@@H](C2)N(CC2CC2)C3)c1F	-2	0.3
Cc1cccc(CS(=O)(=O)N2CCC(Oc3cccc4cccnc34)CC2)c1	-7	1.25
CC(NC(=O)C(C1CC1)N1CCCC1)c1nc(C2CCCC2)no1 (configuration not stated)	-11	1.35
